# The campaign covered roughly 310,000 compounds. About 2,200 (0.71%) showed an effect of 50% or more. The effect is printed as a negative number. The list shows a part of the results.
# Target: human ether-à-go-go-related gene (hERG) potassium channel (human, UniProt Q12809)
# Assay: primary screen, population patch clamp on CHO cells stably expressing hERG
# human ether-à-go-go-related gene (hERG) potassium channel, sequence (Q12809 whole entry, looked up): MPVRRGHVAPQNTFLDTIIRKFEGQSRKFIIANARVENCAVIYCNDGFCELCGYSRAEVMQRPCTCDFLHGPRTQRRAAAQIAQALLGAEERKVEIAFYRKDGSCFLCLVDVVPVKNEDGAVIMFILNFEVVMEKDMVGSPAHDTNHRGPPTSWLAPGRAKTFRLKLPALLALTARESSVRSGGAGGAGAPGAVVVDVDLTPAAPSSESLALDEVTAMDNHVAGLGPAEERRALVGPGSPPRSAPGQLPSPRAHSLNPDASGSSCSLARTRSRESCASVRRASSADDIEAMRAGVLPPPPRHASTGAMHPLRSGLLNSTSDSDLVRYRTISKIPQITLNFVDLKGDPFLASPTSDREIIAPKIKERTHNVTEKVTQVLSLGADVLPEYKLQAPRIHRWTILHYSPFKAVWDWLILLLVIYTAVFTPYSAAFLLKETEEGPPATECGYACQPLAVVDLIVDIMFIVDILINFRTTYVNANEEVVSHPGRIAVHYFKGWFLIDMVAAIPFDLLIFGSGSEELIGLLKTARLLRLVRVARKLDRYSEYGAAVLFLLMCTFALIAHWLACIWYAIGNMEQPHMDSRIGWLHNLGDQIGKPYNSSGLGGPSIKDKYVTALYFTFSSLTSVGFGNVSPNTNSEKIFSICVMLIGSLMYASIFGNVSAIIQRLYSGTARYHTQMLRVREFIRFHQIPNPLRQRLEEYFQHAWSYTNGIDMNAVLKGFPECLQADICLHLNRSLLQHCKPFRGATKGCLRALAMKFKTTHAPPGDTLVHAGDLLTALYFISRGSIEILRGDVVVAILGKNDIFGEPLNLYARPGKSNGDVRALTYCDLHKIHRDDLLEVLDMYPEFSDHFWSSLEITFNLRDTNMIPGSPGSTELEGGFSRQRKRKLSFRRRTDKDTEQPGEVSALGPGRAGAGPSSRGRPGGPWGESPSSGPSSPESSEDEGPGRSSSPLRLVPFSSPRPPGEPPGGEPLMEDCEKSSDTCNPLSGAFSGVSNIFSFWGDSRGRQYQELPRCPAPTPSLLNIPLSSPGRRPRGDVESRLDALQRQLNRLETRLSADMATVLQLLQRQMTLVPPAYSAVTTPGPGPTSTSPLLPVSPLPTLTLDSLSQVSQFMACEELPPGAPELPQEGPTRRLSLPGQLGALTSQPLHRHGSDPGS
row,SMILES,"hERG current change (%, negative = inhibition) at 1uM [%]"
1,CCOC(=O)Cn1c(=O)oc2cc(S(=O)(=O)NCCCc3ccccc3)ccc21,7.34
2,CCOc1ncccc1C(=O)OCc1ccccc1,20.6
3,Cc1cc(C(=O)N2CCN(Cc3ccccc3)CC2)ccc1[N+](=O)[O-],-1.23
4,CC1CCN(c2ccc(C(=O)N3CCOCC3)cc2[N+](=O)[O-])CC1,7.52
5,Cc1cccc(NC(=O)CN2CCN(C(=O)C3CCN(C(=O)/C=C/c4ccccc4)CC3)CC2)c1C,-56.6
6,CC(C)Nc1nc(Cl)nc(N(C#N)CN2C(=O)c3ccccc3S2(=O)=O)n1,6.53
7,CC(=O)Nc1ccc(S(=O)(=O)N2CCN(S(=O)(=O)c3ccccc3)CC2)cc1,10.1
8,Cc1ccnc(NC(=O)C2CCCN(c3ncnc4c3nc3n4CCCCC3)C2)c1 (stereo not drawn),-2.98
9,CNc1ccc(SC#N)cc1.Cl,16.3
10,COC(=O)CSc1nccc(-c2cccs2)n1,5.24
11,CCOC(=O)C(NC(=O)Nc1ccc(F)cc1F)(Oc1ccccc1)C(F)(F)F (stereo not drawn),5.44
12,CSc1nnc(N2C(=O)C(O)=C(C(=O)c3ccco3)C2c2ccccc2)s1 (stereo not drawn),11.2
13,CC(Cc1ccccc1)C(=O)NCc1ccncc1 (stereo not drawn),18.1
14,C/C(N)=C(/C#N)C(=O)COC(=O)c1cc(C)n(-c2ccc(F)cc2)c1C,17.8
15,CCOc1ccc2nc(SCC(=O)NC3CCS(=O)(=O)C3)[nH]c2c1 (stereo not drawn),8.46
16,CSc1ccc(/C=N/NC(=O)CNc2cccc3ccccc23)cc1,-13.3
17,C/C(CC(=O)Nc1cc(C)ccn1)=N\NC(=O)c1cccc(F)c1,12.3
18,CN1C(=O)C(=O)/C(=C(/O)c2ccccc2)C1c1ccc(Br)cc1 (stereo not drawn),9.7
19,CC1(C)CC(=O)C=C(c2cccs2)C1,9.28

row,SMILES,"hERG current change (%, negative = inhibition) at 1uM [%]"
1,CS(=O)(=O)N1CCN(c2ccc(C(=O)N3CCOCC3)cc2[N+](=O)[O-])CC1,6.05
2,CCCCOc1cccc(C2C(C(=O)c3cccs3)=C(O)C(=O)N2Cc2cccnc2)c1 (stereo not drawn),20.5
3,O=C(Nc1nncs1)C1CC(=O)N(C2CCCC2)C1 (stereo not drawn),-8.69
4,O=C(O)c1cc2[nH]c3c(c2cc1Cl)CCCC3,-4.58
5,COC(=O)C(C(=O)Nc1nc2ccccc2s1)C1CCCC1 (stereo not drawn),7.19
6,COc1cc(OC)c2c3c(c(C4CCCCC4)nc2c1)CCC3,13.1
7,Cc1cccc(CCN2C(Nc3ccccc3)=NC[C@@H]2C)c1,4.48
8,CC(C)c1ccc(C2C(C(=O)c3ccco3)=C(O)C(=O)N2CC2CCCO2)cc1 (stereo not drawn),13.4
9,CS(=O)(=O)Nc1ccc(C(=O)Nc2ccc(S(=O)(=O)N3CCCCC3)cc2)cc1,10.9
10,CCSCCOC(=O)C1=C(C)N(C)C(=O)NC1c1cc(OC)ccc1OC (stereo not drawn),1.72
11,CCCCCCNC(=O)CCCCCNS(=O)(=O)c1ccc(OC)cc1,6.08
12,Cn1ncnc2c(=O)n(C)c(=O)nc1-2,1.86
13,CCCCCCCCCCOC(=O)Cn1c(COc2ccccc2OC)[n+](C)c2ccccc21.[Cl-],-33.2
14,Cc1cc(C)cc(OCCCCCNCCO)c1,6.66
15,Cc1nnc(NC(=O)C2CCN(C(=O)c3ccco3)CC2)s1,12.4
16,COCCN1C(=O)C(=O)/C(=C(/O)c2ccc(S(=O)(=O)N3CCCCC3)cc2)C1c1ccc(OC)cc1 (stereo not drawn),11.9
17,CCC(C(=O)NN1C(=O)c2ccccc2C1=O)c1ccccc1 (stereo not drawn),13.8
18,NC(=O)CNC(=O)[C@@H]1CC2(CC(c3cccc(Br)c3)=NO2)CN1C(=O)c1ccc(Br)cc1 (stereo partly drawn),10.5
19,COc1ccc(S(=O)(=O)N(C)C)cc1NC(=O)c1ccc2c(c1)NC(=O)C(C)S2 (stereo not drawn),13.4

row,SMILES,"hERG current change (%, negative = inhibition) at 1uM [%]"
1,Cc1ccccc1NC(=O)CSC(N)=O,24
2,CC(C)CC(O)(CC(C)C)C(=O)NNc1ccccc1,8.96
3,Cc1cc(C(F)(F)F)nc(CCNCc2c(C(=O)N3CCCC3)nc3ccccn23)n1,-7.53
4,Cc1ccc(NCc2nnc(SC(C)C(=O)N/N=C/c3ccc(C)o3)n2-c2ccccc2)cc1 (stereo not drawn),6.75
5,O=C(CSc1nnc(CNC(=O)c2cccs2)o1)Nc1ccc2c(c1)OCO2,14
6,COc1ccc(CNC(=O)c2cccc3c2C(=O)N(Cc2cccnc2)C3)cc1,-1.42
7,CC/C(=N\NC(=O)c1c(-c2ccccc2)noc1C)c1ccc(C)o1,4.03
8,CCN=C1SC(CC(=O)NCCc2ccc(OC)cc2)C(=O)N1CC (stereo not drawn),19.8
9,NNC(=O)CNC(c1ccccc1)c1cc(Br)ccc1NC(=O)CCN1CCOCC1 (stereo not drawn),15.2
10,COc1ccc(-c2noc(C3CCCN(C(=O)c4ccccc4OC)C3)n2)cc1OC (stereo not drawn),10.6
11,CCOC(=O)c1c(C)n(C)c2cc([N+](=O)[O-])c(O)c([N+](=O)[O-])c12,11.8
12,O=C(O)CCC(C(=O)O)n1c(O)c(C2=c3ccccc3=NC2=O)sc1=S (stereo not drawn),17.5
13,C=COCCNC(=O)C(=O)NCC(C)C,8.35
14,Cc1ccc(OCCOCCn2ccnc2)c(Br)c1,1.98
15,Cn1c(CCN2CCCCC2)nc2cc([N+](=O)[O-])ccc21,-54.8
16,CN1CCN(c2ccc(C(N)=O)cc2N)CC1,11.6
17,O=C(/C=C/c1cccc([N+](=O)[O-])c1)Nc1cc(C(=O)O)cc(C(=O)O)c1,8.4
18,N/C(=N\OC(=O)C1CCCCC1)c1cccnc1,17.2
19,O=C(O)Cn1nc2c3c(cccc3c1=O)-c1ccccc1-2,8.49
